This experiment relates to HCT116 cells. The experiment can be described thus: MTT cell viability assay, HB-EGF siRNA and/or AREG antibody. The format is cell-based, human. Conditions: for RI value (Sexp/Sobs; synergism RI>1): AREG antibody in combination with HBEGF siRNA; for reduction on growth: agent alone, HB-EGF siRNA 50 nM, MTT 72 hr after transfection. How it is done: FIG. 2 illustrates HCT116 cell proliferation following HB-EGF silencing by siRNA and/or treatment with AREG antibody. Cells were transfected with HB-EGF siRNA (50 nM) or a control siRNA (50 nM). Cell proliferation was analysed by MTT assay 72 hr after transfection;
FIG. 3 illustrates RI values calculated by MTT cell viability assays in response to HBEGF siRNA and AREG antibodies. The RI value is calculated as the ratio of expected survival (Sexp defined as the product of the survival observed with drug A alone and the survival observed with drug B alone) to the observed cell survival (Sobs) for the combination of A and B. (RI=Sexp/Sobs). Synergism is defined as RI>1;
Cells were seeded at 5 000 cells per well in a 96 well plate or 5×10^5 cells per well in a 6 well plate. The cells were cultured for 24 hours before transfection. The siRNA was made up to 100 nM in serum free DMEM and left for 5 minutes at room temperature. The Dharmafect transfection reagent was also made up in the serum free DMEM and incubated for 5 minutes at room temperature. The transfection reagent was added to the siRNA and incubated at room temperature for 20 minutes. The media was removed from the plate wells and antibiotic free DMEM was added to the wells. After 20 minutes the siRNA was added dropwise to the wells. The plates were incubated at 37° C. for 48 hours.
Cell viability was assessed by 3-(4,5-dimethylthiazol-2-yl)-2,5-diphenyltetrazolium bromide (MTT, Sigma) assay (Mosmann, 1983). To assess chemotherapy/siRNA interactions 5000 cells were seeded per well on 96 well plate. After 24 hours cells were transfected with siRNA and treated with various chemotherapeutic agents at different concentrations. After 48 hours MTT (1.0 mg/ml) was added to each well and cells were incubated at 37° C. for 2 hours. The culture media was removed and formazan crystals were reabsorbed in 200 μl DMSO. Cell viability was determined by reading the absorbance of each well at 570 nm using a microplate reader (Tecan Sunrise, Biorad, UK).
(Formazan colour is commonly taken as a measure of viable cells.)

The text below walks through data of patent US8846868B2, “Anti-AREG/HB-EGF antibodies and treatment” (Fusion Antibodies Limited, priority 2008, dated 2014).

B1: 6E11 1E9 106: AREG monoclonal antibody; VH Sequence ID No: 3, VL Sequence ID No: 4 (antibody, listed as Mus musculus)
VH: MECNWILPFILSVTSGVYSQVQLQQSGAELARPGASVKLSCKASGYTFTRYWMQWIKQRPGQGLEWIGAIYPGNGDIRYTQKFKGKATLTADKSSSTAYMQLSSLASEDSAVYYCARGTTPSSYWGQGTLVTVSAAKTTAPSVYPLAPVCGDTTGSSVTLGCLVKGYF
light: MMSPAQFLFLLVLWIRETSGDVVMTQTPLTLSVSIGQPASISCKSSQSLLDSDGKTYLNWLLQRPGQSPKRLIYLVSKLDSGVPDRFTGSGSGTDFTLKISRVEAEDLGVYYCWQGTHFPWTFGGGTKLEIKRADAAPTVSIFPPSSEQLTSGGASVVCFLNNFYPK
Take B1: the “RI value (Sexp/Sobs; synergism RI>1)” value is on record as 5 and the reduction on growth amounted to 50%.

B2: 6E11 1E9 2D8: AREG monoclonal antibody (antibody, V domains shown)
VH: QVQLQQSGAELARPGASVKLSCKASGYTFTRYWMQWIKQRPGQGLEWIGAIYPGNGDIRYTQKFKGKATLTADKSSSTAYMQLSSLASEDSAVYYCARGTTPSSYWGQGTLVTVSAAKTTAPSVYPLAPVCGDTTGSSVTLGCLVKGYF
VL: DVVMTQTPLTLSVSIGQPASISCKSSQSLLDSDGKTYLNWLLQRPGQSPKRLIYLVSKLDSGVPDRFTGSGSGTDFTLKISRVEAEDLGVYYCWQGTHFPWTFGGGTKLEIKRADAAPTVSIFPPSSEQLTSGGASVVCFLNNFYPK
Turning to B2, the “RI value (Sexp/Sobs; synergism RI>1)” value is 2 and the reduction on growth is recorded as 50%.
